# Source: PubChem BioAssay AID1508623 (National Center for Advancing Translational Sciences (NCATS), 2021)
# The whole screen tested about 48,000 compounds, of which about 450 (0.94%) were called active. About 19% were inconclusive and are not listed. Calls come from the whole dose curve; as a rule, active = well fitted inhibition curve with a large enough effect; inconclusive = small, poorly fitted or top-dose-only effect; inactive = no such curve, though single readings can be large or run the other way. The list shows a part of the results.
# Experiment: Primary qHTS for Identification of Small Molecule Inhibitors of Huntingtin Promoter Activity; note: nearly all actives have a fitted effect of over 50% in size
# Details: HEK293 HTT promoter firefly luciferase reporter (activity 0% = vehicle and -100% = no light), 24 h; series mostly up to 57.5 µM; activity change, negative = inhibition: at the top concentration
# Procedure, shortened: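 HEK293 Fluc reporter, 2,500 cells/well, 24 h pre-culture; cpds up to 57.5 uM final, 24 h 37 degrees C; Dual-Glo, 10 min RT; normalized vehicle = 0%, zero RLU = -100%.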
row,SMILES,"activity change, negative = inhibition"
1,CCOc1ccc(Nc2oc(/C=C/c3ccc(F)cc3)nc2C#N)cc1,inactive: 0.843%
2,Cc1ccc(NC(=O)C(=O)NCC(c2cccnc2)N2CCN(C)CC2)cc1C (stereo unspecified),inactive: -16.3%
3,Cc1ccc(OCC(=O)Nc2ccc(C(=O)OCc3cc(=O)n4nc(C5CC5)sc4n3)cc2)cc1,inactive: -13.5%
4,COc1ccc(NC(=O)c2oc3c(c2C)-c2nn(Cc4c(F)cccc4Cl)cc2CC3)c(OC)c1,inactive: -6.13%
5,Cc1cc(C)c2c(CC(=O)Nc3nnc(C(C)C)s3)coc2c1,inactive: 3.34%
6,Fc1ccccc1CNCCCSc1nnnn1-c1ccccc1,inactive: -5.38%
7,CCOC(=O)c1ccccc1NC(=O)CSc1ccc(-c2sc(-c3ccccc3)nc2C)nn1,inactive: -6.29%
8,Cc1cc(C)n(-c2nc3ccccc3nc2Nc2cccc(C(F)(F)F)c2)n1,inactive: 1.12%
9,COc1ccc(C2C(C(=O)Nc3ccccc3)=C(C)Nc3nc(-c4ccccc4)nn32)cc1OC (stereo unspecified),inactive: -15.7%
10,COc1ccc(OC)c(-c2nc(Nc3ccccc3C)sc2CC(=O)O)c1,inactive: -22.7%
11,O=C1CCSC2(C(=O)N(Cc3ccc(F)cc3)c3ccccc32)N1c1ccccc1 (stereo unspecified),inactive: -21%
12,COc1ccc(NC(=O)C(=O)NCCc2ccccc2)cc1OC,inactive: -2.84%
13,CC(C)CCNC(=O)CN1C(=O)COc2ccc(S(=O)(=O)N3CCOCC3)cc21,inactive: -12.3%
14,COc1cccc(C(=O)Nc2ccccc2C(=O)OCc2cc(=O)n3nc(C)sc3n2)c1,inactive: -12.9%
15,CCOC(=O)c1cccc(NC(=O)c2cc3c(Cl)nc4ccc(C)cc4c3s2)c1,inactive: -17.3%
16,CCc1ccc(NS(=O)(=O)c2ccc3[nH]cc(C(=O)NC4CCCC4)c(=O)c3c2)cc1,inactive: -17%
17,Fc1ccc(-c2cc(-c3nc(-c4cccc(Cl)c4)no3)[nH]n2)cc1,inactive: 5.14%
18,COc1ccc(-c2noc(C3CC(=O)N(c4ccc(C)c(F)c4)C3)n2)c(OC)c1 (stereo unspecified),inactive: -22.3%
19,COc1ccccc1CNC(=O)CSc1ncc2c(n1)-c1ccccc1N(Cc1ccc(C)cc1)S2(=O)=O,inactive: -5.92%
20,CC1CCC(NC(=O)c2ccc3c(c2)N(Cc2cccc(F)c2)C(=O)c2ccccc2S3)CC1 (stereo unspecified),inactive: 28.7%
21,Cc1ccc(C)c(NC(=O)C(C)n2c(=O)cc(C(F)(F)F)c3c(C)nn(C)c32)c1 (stereo unspecified),inactive: 6.16%
22,CCc1ccc(CNC(=O)c2ccc3c(c2)nc2n3CCOC2)cc1,inactive: 0.896%
23,Cc1ccc(-c2nc(NC(=O)CSc3ccc4ccccc4n3)ns2)cc1,inactive: 6.97%

row,SMILES,"activity change, negative = inhibition"
1,Cc1ccccc1OCC(=O)Nc1ccc(C(=O)OCc2cc(=O)n3ccsc3n2)cc1,inactive: -8.1%
2,Cc1ccccc1NC(=O)c1nc(S(C)(=O)=O)ncc1N(Cc1ccco1)Cc1sccc1C,inactive: -26.4%
3,CCN(C(=O)CCc1nc(-c2ccc(C)cc2)no1)c1cccc(Cl)c1,inactive: -23.4%
4,COc1cc2c(cc1OC)C(COc1ccc3c(C)cc(=O)oc3c1)N(C(=O)Cc1ccccc1)CC2 (stereo unspecified),inactive: -15.7%
5,COC(=O)c1cc2sccc2n1CC(=O)Nc1ccc(C)cc1C,inactive: -14.4%
6,Cc1cc(C)c(Cn2c3ccccc3c3cnn(CC(=O)NCCC4=CCCCC4)c(=O)c32)c(C)c1,inactive: -12.9%
7,COc1cccc(CNC(=O)c2ccc3nc(-c4ccccc4)c(-c4ccccc4)nc3c2)c1OC,inactive: -14.8%
8,CCOc1ccccc1C(=O)NC1(C(F)(F)F)C(=O)Nc2c1c(=O)[nH]c(=O)n2-c1ccccc1 (stereo unspecified),inactive: -13.6%
9,Cc1ccc(S(=O)(=O)c2cn(Cc3ccccc3)c3cc(N4CCCC4)c(F)cc3c2=O)cc1,inactive: -0.475%
10,Cc1ccc(NC(=O)Cn2nnc(C(=O)NCCc3ccccc3)c2N)cc1,inactive: -0.643%
11,Clc1ccc(-c2csc(-c3nc(-c4ccc(Br)s4)cs3)n2)cc1,inactive: -5.91%
12,Cc1ccc(NC(=O)c2c(C)nc3sc(C(=O)Nc4ccc(F)cc4)c(N)c3c2-c2ccc(Cl)cc2)c(C)c1,inactive: -20.1%
13,COc1cccc(NC(=O)CCc2nnc3n(Cc4ccccc4Cl)c(=O)c4ccccc4n23)c1,inactive: -0.0673%
14,CCOC(=O)C(O)c1ccccc1 (stereo unspecified),inactive: 2.82%
15,Cc1ccc(Nc2c(-c3ccc(N4CCOCC4)cc3)nc3cccc(C)n23)cc1,inactive: 11.1%
16,O=C1CC(c2nnc(Cc3c(F)cccc3Cl)o2)CN1c1ccccc1 (stereo unspecified),inactive: -19.5%
17,CCOC(=O)c1ccc(NC2(c3ccccc3)C(=O)c3ccccc3C2=O)cc1,inactive: 1.03%
18,CCOC(=O)c1ccc(NC(=O)c2sc3ccccc3c2Cl)cc1,inactive: 56.4%
19,COc1ccccc1C(=O)Nc1nnc(S(=O)(=O)N2CCN(c3ccc(F)cc3)CC2)s1,inactive: -21.7%
20,Cc1ccc(-c2nnc3ccccc3c2C(=O)Nc2ccc(C)c(F)c2)cc1,inactive: 31.5%
21,CCc1nnc(SCc2nc(-c3cccc(Cl)c3)oc2C)c2cc3sc(C)cc3n12,inactive: 7.13%
22,COc1cc(OC)c(NS(=O)(=O)c2cc3c(cc2C)N(C(C)=O)CCO3)cc1Cl,inactive: -6.21%
23,COc1ccccc1NC(=O)CN(c1cc(C)cc(C)c1)S(=O)(=O)c1c(C)[nH]c(=O)[nH]c1=O,inactive: -9.33%
